Test results: US20220267438A1 (Janssen / Centocor, published 2022)

What was measured:
[1] = biological target: T1, BCMW37 (recombinant human BCMA antigen) (human, UniProt Q02223 1-54, limits assumed); assay: SPR, BCMA binding after pH 5.0 stress
T1 construct: also called BCMA BCMW37 chain; human BCMA (SPR antigen)
T1 sequence (looked up): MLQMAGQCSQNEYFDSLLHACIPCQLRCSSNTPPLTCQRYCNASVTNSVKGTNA

[2] = biological target: T1, BCMW37 (recombinant human BCMA antigen); assay: SPR, BCMA binding after thermal stress
[3] = biological target: T2, human BCMA (B cell maturation antigen, TNFRSF17) on cells (human, UniProt Q02223 1-184); assay: flow cytometry, H929-GPRC5D-KO cells (BCMA arm), 1 h 37C; Run 1
T2 construct: whole, on cells; Target on H929 or MM.1R GPRC5D knockout cells, K562 cells expressing human BCMA, HEK293 cells of the cell microarray, and BCMA-only lymphoma lines; also called CD269; surface BCMA
T2 sequence (looked up): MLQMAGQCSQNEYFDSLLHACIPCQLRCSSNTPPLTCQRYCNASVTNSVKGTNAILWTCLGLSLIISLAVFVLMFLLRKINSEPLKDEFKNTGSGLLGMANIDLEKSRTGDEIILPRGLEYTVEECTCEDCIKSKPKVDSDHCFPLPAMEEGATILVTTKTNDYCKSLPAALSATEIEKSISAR

[4] = biological target: T3, human GPRC5D (G-protein coupled receptor family C group 5 member D) on cells (human, UniProt Q9NZD1 1-345); assay: flow cytometry, H929 BCMA KO cells, 1 h 37C; Run 1
T3 construct: Target on H929 or MM.1R BCMA knockout cells, K562 cells expressing human GPRC5D and HEK293 cells of the cell microarray
Method: (§1) First, FACS-based binding for GPRC5D and BCMA binding arms of the trispecific molecule was determined by measuring the effective concentration (EC) range from a dose-response curve using a 4-parameter fit at 37° C. for 1 hr. This was assessed using an H929 suite of cells (WT, GPRC5D-KO, BCMA-KO, and GPRC5D/BCMA KO), and a similar MM.1R suite. Cell based EC₅₀ is approximately 13 nM for WT H929 (FIGS. 2A-2D, Table 7) and 2.4 nM for WT MM.1R (FIGS. 3A-3D, Table 8). A clear avidity affect is observed as EC₅₀ and Bmax are both reduced in GPRC5D-KO and BCMA-KO lines which test monovalent binding of target binding arms (Table 7). Next, cell-based EC₅₀ was determined for the CD3-binding Fab arm using purified Pan T cells from three random donors. […] Next, dose responsive binding was assessed at 4° C. to remove any potential biological effects. As shown in FIGS. 5A-5C, binding is stronger (50-100 nM) at 4° C., compared to 37° C., which may indicate internalization. Additionally, two expression lots of BGCB463 (BGCB463.003 from transient transfection and BGCB463.004 from a stable transfection pool), were directly compared with binding to H929, MM.1R, and Pan T cells and no differences were noted (FIGS. 6A-6C).

[5] = biological target: T3, human GPRC5D (G-protein coupled …); assay: flow cytometry, H929 BCMA KO cells, 1 h 37C; Run 2
Method: as §1

[6] = biological target: T2, human BCMA (B cell maturation antigen, …); assay: flow cytometry, H929 GPRC5D KO cells, 1 h 37C; Run 1
Method: as §1

[7] = biological target: T2, human BCMA (B cell maturation antigen, …); assay: flow cytometry, H929 GPRC5D KO cells, 1 h 37C; Run 2
Method: as §1

[8] = biological target: T4, human CD3 (CD3ε of the TCR/CD3 complex) on primary human pan T cells (human, UniProt P07766); assay: flow cytometry, human pan T cells, Donor 3, 1 h 37C; Run 5
T4 construct: whole, on cells; On T cells CD3ε stands in the whole TCR/CD3 complex
Method: (§2) For binding of BGCB463 to human and cynomolgus Pan T cells, three human donors (Hemacare) were selected, quickly thawed, resuspended, and aliquoted into a 96-well plate at 1×10⁶ cells/mL. Cells were then washed, Fc blocked if necessary (Innovex), and stained with viability dye (Invitrogen). BGCB463 and its corresponding isotype (B23B251) were diluted in complete media to an initial concentration of 2 μM and 1:3 serial dilutions in duplicate were performed for a dose-response curve. The cells were incubated with molecules at 4° C. or 37° C. for 1 hour. When necessary, incubation with 90% human serum (Sigma) was also performed as described above.
(§3) First, FACS-based binding for GPRC5D and BCMA binding arms of the trispecific molecule was determined by measuring the effective concentration (EC) range from a dose-response curve using a 4-parameter fit at 37° C. for 1 hr. This was assessed using an H929 suite of cells (WT, GPRC5D-KO, BCMA-KO, and GPRC5D/BCMA KO), and a similar MM.1R suite. Cell based EC₅₀ is approximately 13 nM for WT H929 (FIGS. 2A-2D, Table 7) and 2.4 nM for WT MM.1R (FIGS. 3A-3D, Table 8). […] Next, cell-based EC₅₀ was determined for the CD3-binding Fab arm using purified Pan T cells from three random donors. […] Next, dose responsive binding was assessed at 4° C. to remove any potential biological effects. […]

[9] = biological target: T2, human BCMA (B cell maturation antigen, …); assay: flow cytometry on K562 cells expressing human BCMA, 1 hr 37 C, Run 2
Method: FIGS. 9A-E. BGCB463 (circles) or negative control B23B251 (triangles) were all incubated with K562 cells expressing human GPRC5D (FIG. 9A), human BCMA (FIG. 9B), cynomolgus GPRC5D (FIG. 9C) or cynomolgus BCMA (FIG. 9D) for 1 hr at 37° C. at a starting concentration of 2 μM. After secondary detection with AF647-anti-human IgG, the MFI signal was analyzed to generate an EC₅₀ and EC₉₀ (FIG. 9E). Data are representative of two independent experiments.
The GPRC5D (i.e., GC5B680) and BCMA binding arms were assessed for cross-reactivity to cynomolgus monkey as part of the BGCB463 molecule, which uses the identical binding arms as BGCB491. Cross reactivity to cynomolgus monkeys was profiled for both target-binding scFv arms using FACS-based cell binding at 37° C. for 1 hour with K562 stably expressing human or cynomolgus monkey GPRC5D or BCMA. The cell-based EC₅₀ value for the GC5B680 scFv arm was approximately 30 nM against human GPRC5D-expressing cells and about 10-fold weaker (approximately 400 nM) on cynomolgus monkey GPRC5D-expressing cells.

[10] = biological target: T4, human CD3 (CD3ε of the TCR/CD3 complex) …; assay: flow cytometry on Pan T cells, donor D329335, 1 hr at 4 C, AF647 secondary detection
Method: as §2, §3

[11] = biological target: T4, human CD3 (CD3ε of the TCR/CD3 complex) …; assay: flow cytometry on Pan T cells, donor D329335, 1 hr at 37 C, AF647 secondary detection
Method: as §2, §3

T4 sequence (P07766 23-207, one chain of several): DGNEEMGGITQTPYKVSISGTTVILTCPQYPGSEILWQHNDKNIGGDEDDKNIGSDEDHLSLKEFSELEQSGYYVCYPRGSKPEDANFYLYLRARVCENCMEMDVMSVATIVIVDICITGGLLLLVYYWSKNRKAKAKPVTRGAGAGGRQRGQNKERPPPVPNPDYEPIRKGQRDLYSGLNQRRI
T3 sequence (Q9NZD1 whole entry): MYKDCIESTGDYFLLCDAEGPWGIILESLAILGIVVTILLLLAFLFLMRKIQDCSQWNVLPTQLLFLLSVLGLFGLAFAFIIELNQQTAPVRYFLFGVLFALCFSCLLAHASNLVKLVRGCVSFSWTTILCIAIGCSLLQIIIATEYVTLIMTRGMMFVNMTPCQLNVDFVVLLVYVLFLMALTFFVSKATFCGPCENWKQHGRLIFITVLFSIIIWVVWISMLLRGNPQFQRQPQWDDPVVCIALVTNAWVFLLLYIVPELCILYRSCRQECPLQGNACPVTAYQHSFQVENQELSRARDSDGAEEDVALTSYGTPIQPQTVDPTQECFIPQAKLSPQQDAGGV

B1: BGCB491 (other)
heavy: QVQLQQSGPRLVRPSQTLSLTCAISGDSVFNNNAAWSWIRQSPSRGLEWLGRTYYRSKWLYDYAVSVKSRITVNPDTSRNQFTLQLNSVTPEDTALYYCARGYSSSFDYWGQGTLVTVSSASTKGPSVFPLAPSSKSTSGGTAALGCLVKDYFPEPVTVSWNSGALTSGVHTFPAVLQSSGLYSLSSVVTVPSSSLGTQTYICNVNHKPSNTKVDKKVEPKSCDKTHTCPPCPAPEAAGGPSVFLFPPKPKDTLMISRTPEVTCVVVSVSHEDPEVKFNWYVDGVEVHNAKTKPREEQYNSTYRVVSVLTVLHQDWLNGKEYKCKVSNKALPAPIEKTISKAKGQPREPQVYTLPPSREEMTKNQVSLSCAVKGFYPSDIAVEWESNGQPENNYKTTPPVLDSDGSFFLVSKLTVDKSRWQQGNVFSCSVMHEALHNRFTQKSLSLSPGKGGGGSGGGGSGGGGSGGGGS[letters of about 100 residues not shown]QFPHTFGQGTKLEIKGGSEGKSSGSGSESKSTGGSQVTLKESGPVLVKPTETLTLTCTVSGFSLTNIRMSVSWIRQPPGKALEWLAHIFSNDEKSYSTSLKSRLTISRDTSKSQVVLTLTNVDPVDTATYYCARMRLPYGMDVWGQGTTVTVSS
light: QSALTQPASVSGSPGQSITISCTGTSSNIGTYKFVSWYQQHPDKAPKVLLYEVSKRPSGVSSRFSGSKSGNTASLTISGLQAEDQADYHCVSYAGSGTLLFGGGTKLTVLGQPKAAPSVTLFPPSSEELQANKATLVCLISDFYPGAVTVAWKADSSPVKAGVETTTPSKQSNNKYAASSYLSLTPEQWKSHRSYSCQVTHEGSTVEKTVAPTECS
chain: EIVLTQSPGTLSLSPGERATLSCRASQSISSSFLTWYQQKPGQAPRLLIYGASSRATGIPDRFSGGGSGTDFTLTISRLEPEDFAVYYCQHYGSSPMYTFGQGTKLEIKGGSEGKSSGSGSESKSTGGS[letters of about 100 residues not shown]DEGYSSGHYYGMDVWGQGTTVTVSSEPKSSDKTHTCPPCPAPEAAGGPSVFLFPPKPKDTLMISRTPEVTCVVVSVSHEDPEVKFNWYVDGVEVHNAKTKPREEQYNSTYRVVSVLTVLHQDWLNGKEYKCKVSNKALPAPIEKTISKAKGQPREPQVYTLPPSREEMTKNQVSLWCLVKGFYPSDIAVEWESNGQPENNYKTTPPVLDSDGSFFLYSKLTVDKSRWQQGNVFSCSVMHEALHNHYTQKSLSLSPGK
notes: Trispecific IgG1 antibody (L234A, L235A, D265S); Heavy chain 1 = anti-CD3 (CD3B376) Fab heavy chain, hole and RF mutations, with C-terminal anti-GPRC5D scFv (GC5B680); Heavy chain 2 = anti-BCMA scFv (BCMB519) - Fc knob; also called JNJ-79635322; BCMA×GPRC5D×CD3 trispecific mAb
With B1 as the binder, how does the Kd [1] read?
Its Kd is 0.207 nM.

And the Kd [2]?
The Kd was 0.281 nM.

And the EC50 [3]?
The EC50 was 210 nM.

B2: BGCB463 (other)
heavy: QVQLQQSGPRLVRPSQTLSLTCAISGDSVFNNNAAWSWIRQSPSRGLEWLGRTYYRSKWLYDYAVSVKSRITVNPDTSRNQFTLQLNSVTPEDTALYYCARGYSSSFDYWGQGTLVTVSSASTKGPSVFPLAPSSKSTSGGTAALGCLVKDYFPEPVTVSWNSGALTSGVHTFPAVLQSSGLYSLSSVVTVPSSSLGTQTYICNVNHKPSNTKVDKKVEPKSCDKTHTCPPCPAPEAAGGPSVFLFPPKPKDTLMISRTPEVTCVVVSVSHEDPEVKFNWYVDGVEVHNAKTKPREEQYNSTYRVVSVLTVLHQDWLNGKEYKCKVSNKALPAPIEKTISKAKGQPREPQVYTLPPSREEMTKNQVSLSCAVKGFYPSDIAVEWESNGQPENNYKTTPPVLDSDGSFFLVSKLTVDKSRWQQGNVFSCSVMHEALHNRFTQKSLSLSPGK
light: B1 light
chain: [letters of about 100 residues not shown]QFPHTFGQGTKLEIKGGSEGKSSGSGSESKSTGGSQVTLKESGPVLVKPTETLTLTCTVSGFSLTNIRMSVSWIRQPPGKALEWLAHIFSNDEKSYSTSLKSRLTISRDTSKSQVVLTLTNVDPVDTATYYCARMRLPYGMDVWGQGTTVTVSSEPKSSDKTHTCPPCPAPEAAGGPSVFLFPPKPKDTLMISRTPEVTCVVVSVSHEDPEVKFNWYVDGVEVHNAKTKPREEQYNSTYRVVSVLTVLHQDWLNGKEYKCKVSNKALPAPIEKTISKAKGQPREPQVYTLPPSREEMTKNQVSLWCLVKGFYPSDIAVEWESNGQPENNYKTTPPVLDSDGSFFLYSKLTVDKSRWQQGNVFSCSVMHEALHNHYTQKSLSLSPGKGGSEGKSSGSGSESKSTGGSEIVLTQSPGTLSLSPGERATLSCRASQSISSSFLTWYQQKPGQAPRLLIYGASSRATGIPDRFSGGGSGTDFTLTISRLEPEDFAVYYCQHYGSSPMYTFGQGTKLEIKGGSEGKSSGSGSESKSTGGS[letters of about 100 residues not shown]DEGYSSGHYYGMDVWGQGTTVTVSS
notes: Trispecific IgG1 antibody (L234A, L235A, D265S); Heavy chain 1 = anti-CD3 (CD3B376) Fab heavy chain with hole and RF mutations; also called BGCB463.003; BGCB463.004
How did the EC50 [4] turn out when B2 was run?
Its EC50 is 195 nM.

What about the EC50 [5] of the same binder?
The EC50 was 129 nM.

What about the EC50 [6] of the same binder?
The EC50 was 106 nM.

And the EC50 [7]?
The EC50 was 63.9 nM.

What about the EC50 [8] of the same binder?
The EC50 was 251 nM.

And the EC50 [9]?
The EC50 was 45.8 nM.

And the “EC50 (read off the curve)” value [10]?
The value was roughly 30 nM.

And the “EC50 (read off the curve)” value [11]?
Its value is roughly 100 nM.
